Experimental data taken from PubChem BioAssay AID504832 (National Center for Advancing Translational Sciences (NCATS), 2011).
The campaign covered roughly 310,000 compounds. About 18,000 (5.8%) were called active. The shares of active, inactive and inconclusive entries below differ from those in the screen. Calls come from the whole dose curve; as a rule, active = well fitted inhibition curve with a large enough effect; inconclusive = small, poorly fitted or top-dose-only effect, or another doubt; inactive = no such curve, though single readings can be large or run the other way. No potency is given beside an inconclusive call; the fits are too rough.

Experiment: Primary qHTS for delayed death inhibitors of the malarial parasite plastid, 48 hour incubation
Details: P. falciparum luciferase growth in erythrocytes; series mostly up to 28.7 µM; activity change, negative = inhibition: at the top concentration
In short: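 Luciferase-expressing parasites in RBCs, 2% Hct / 0.1% parasitemia final; RPMI 1640 + 0.5% Albumax; 37 C, 5% CO2, one generation; luminescence read-out, lower signal = inhibition.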
% is set by controls: 0 for no effect and ±100 for the full control effect; potency is the fitted concentration of half-maximal effect; tags give direction and shape of the fitted curve.

SMILES	Potency	activity change, negative = inhibition
COc1cc(C(=O)OCC(=O)N2CCNC2=O)cc(Cl)c1OC	inconclusive [inhibitor, single point]	–
CCC(C)N1C(=S)SC(C)(C)C1N(O)C(=O)NC1CCCCC1 (configuration not stated)	inconclusive [inhibitor, partial curve]	–
CN(CC(=O)Nc1ccccc1Sc1ccccc1)C1CCCCC1	inconclusive [inhibitor, single point]	–
CCCOP(=O)(c1ccc(N(C)C)cc1)C(O)c1ccc(Cl)cc1 (configuration not stated)	inconclusive [inhibitor, single point]	–
COc1ccc(C2c3[nH]c4ccccc4c3CCN2C(=O)c2ccc(=O)n(C)n2)c(F)c1 (configuration not stated)	inconclusive [inhibitor, full curve, poor fit]	–
COc1ccc(C(=O)N/N=C(\C)c2ccc3c(c2)C2C=CCC2C(c2ccccc2)N3)cc1 (configuration not stated)	active: 1.04 µM	–
COc1ccc(C(C)=O)cc1CSc1nnc(Nc2ccc(C)cc2C)s1	inconclusive [inhibitor, partial curve, poor fit]	–
CCc1cc(C(=O)N(Cc2ccccc2)c2c(N)n(CCOC)c(=O)[nH]c2=O)sc1C	inconclusive [inhibitor, partial curve, poor fit]	–
Cc1cccc2c1nc(-c1ccccc1)n1cnnc21	–	inactive: 7.55%
CC(=O)n1cc(N(C(=O)CCl)c2ccc(Cl)cc2)c2ccccc21	active: 2.33 µM	–
CCOc1cccc(=O)c2c(C)n(Cc3ccccc3)c(C)c12	inconclusive [inhibitor, partial curve]	–
O=C1Nc2cc(C(=O)NCCCN3CCOCC3)ccc2S/C1=C/c1cccc(Cl)c1	inconclusive [inhibitor, partial curve]	–
COc1ccc(/C=C(\C#N)C(=O)OCC(=O)NC(C)c2ccccc2)cc1 (configuration not stated)	–	inactive: 13.7%
Cc1ccc(SCC(=O)c2ccc[nH]2)cc1	–	inactive: 107%
COc1ccc(CC(=O)N(C)Cc2cccc(OC)c2OC)cc1S(=O)(=O)N1CCOCC1	inconclusive [inhibitor, single point]	–
CS(=O)(=O)c1ccc(-c2cn3cc(C(=O)O)ccc3n2)cc1	–	inactive: 144%
CN1CCc2c(sc(/N=C/c3c[nH]c4ccccc34)c2C(N)=O)C1	active: 4.15 µM	–
CCNC(=O)c1ccc(-n2nc(C(F)(F)F)c3c2CCCC3)cc1	active: 14.7 µM	–
CCOC(=O)Cc1c(C)nc2cc(-c3ccc(C)cc3)[nH]n2c1=O	–	inactive: 37.9%
CCOc1ccc(CCNC(=O)c2nnn(CC(=O)Nc3ccc(C)cc3)c2N)cc1OCC	–	inactive: 3.88%
CN(C)CC(O)CN1C(=O)N(CN2C(=O)N(CC(O)CN(C)C)C(=O)C2(C)C)C(C)(C)C1=O (configuration not stated)	–	inactive: 2.98%
COc1ccc(NC(=O)CSc2ncnc3c2cnn3Cc2ccccc2)cc1OC	inconclusive [inhibitor, single point]	–
CCOc1ccc(NC(=S)N2CCC(c3nc4ccccc4[nH]3)CC2)cc1	–	inactive: -27%
COc1ccc(C(=O)NNC(=O)COc2ccc(Cl)cc2C)cc1S(=O)(=O)N1CCOCC1	–	inactive: -3.28%
O=C1NC(=S)N/C1=C/c1cccc2ccccc12	–	inactive: 30.5%
CCOc1ccc(NC(=O)CSc2nc3cccnc3n2CCOC)cc1	inconclusive [inhibitor, single point]	–

SMILES	Potency	activity change, negative = inhibition
COCc1cc(Sc2ccc(OC)cc2)nc(-c2ccccc2)n1	inconclusive [inhibitor, single point]	–
CC1=CC(=C(C#N)C#N)C=C(C)N1CCN1CCN(C(=O)Nc2cccc(Cl)c2)CC1	inconclusive [inhibitor, partial curve, poor fit]	–
CC(C)CNc1c(N)c(=O)oc2ccccc12	inconclusive [inhibitor, full curve]	–
CSc1ccc(/C=C/C(=O)c2ccc(NC(=O)Cc3ccccc3)cc2)cc1	–	inactive: -8.77%
CCOc1ccc(C(C)NC(=O)Cc2ccccc2F)cc1OCC (configuration not stated)	inconclusive [inhibitor, full curve]	–
COc1ccc(NC(=O)Cc2ccccc2F)cc1S(=O)(=O)N1CCCCC1	inconclusive [inhibitor, partial curve, poor fit]	–
C/C(=N\Nc1nc(C)cc(-c2ccccc2)n1)c1ccc(O)cc1	inconclusive [inhibitor, single point]	–
COc1cc(CNCCCN2CCOCC2)cc(Cl)c1OCC(=O)NC(C)(C)C	inconclusive [inhibitor, single point]	–
CCCc1nc2ccc(NC(=O)c3ccco3)cc2c(=O)n1Cc1ccc(Cl)cc1	active: 1.31 µM	–
COc1cc(NC(=S)N2CCN(S(=O)(=O)c3ccc(C)cc3)CC2)cc(OC)c1	inconclusive [inhibitor, full curve]	–
Cc1ccccc1N(C(=O)c1ccccn1)C(C(=O)NCc1ccccc1)c1cccnc1 (configuration not stated)	–	inactive: -7.74%
CCc1ccc(Nc2ncnc3nc[nH]c23)cc1	–	inactive: 76.5%
CN(C)S(=O)(=O)c1cccc(NC(=O)COC(=O)/C=C/c2ccc3c(c2)OCO3)c1	–	inactive: 82.2%
C/C(=C\C(=O)c1ccc(Cl)cc1Cl)N(C)C	inconclusive [inhibitor, full curve, poor fit]	–
COCCCNc1nc(SCc2ccccc2)nc2sc3c(c12)CCC3	inconclusive [inhibitor, single point]	–
O=C(O)CCC(=O)Nc1ccc(SSc2ccc(NC(=O)CCC(=O)O)cc2)cc1	inconclusive [inhibitor, single point]	–
CCc1cc(=O)oc2cc(OCC(=O)NCCCN3CCCC3=O)ccc12	inconclusive [inhibitor, single point]	–
N=C(N)CCCOc1ccccc1-c1ccccc1	inconclusive [inhibitor, single point]	–
O=C1Nc2ccccc2C(=O)N2[C@H](c3ccccc3)[C@@H]3C(=O)N(Cc4ccccc4)C(=O)[C@@H]3[C@H]12	–	inactive: 4.7%
Nc1ccc(N)cc1	inconclusive [inhibitor, single point]	–
Nc1nnnn1CC(=O)N/N=C/C=C/c1ccccc1	–	inactive: 8.81%
O=C(CCCc1nc(-c2ccccc2)no1)NC1CCCCC1	–	inactive: 4.63%
O=C(N/N=C/c1ccncc1)c1nn(Cc2ccccc2)c(=O)c2ccccc12	–	inactive: -25.7%
Clc1ccccc1CSC1=NCCN1	active: 14.7 µM	–
CN(CC(=O)Nc1ccccc1N1CCOCC1)CC(=O)Nc1ccc(F)c(F)c1F	inconclusive [inhibitor, partial curve]	–
COC(=O)c1sccc1S(=O)(=O)N1CCCC(N(C)CCc2ccccn2)C1 (configuration not stated)	–	inactive: -6.42%

SMILES	Potency	activity change, negative = inhibition
CC(=O)NC(CCS(C)(=O)=O)C(=O)Nc1cc(Cl)ccc1Cl (configuration not stated)	–	inactive: 21%
CCC(C)C1Nc2ccc(C(=O)NCCc3ccc(OC)c(OC)c3)cc2NC1=O (configuration not stated)	inconclusive [inhibitor, single point]	–
CN(CCOC(=O)c1cccc(F)c1)Cc1ccccc1	–	inactive: -1.01%
Cc1cc(NC(CC(C)C)C(=O)O)nc(Cc2ccccc2)n1 (configuration not stated)	inconclusive [inhibitor, single point]	–
Cc1cc(C(=O)COc2ccc3ccc(=O)oc3c2)c(C)n1C	inconclusive [inhibitor, partial curve, poor fit]	–
CCc1ccc(NC(=O)CC2S/C(=N/N=C3CCCCCC3)NC2=O)cc1 (configuration not stated)	–	inactive: -3.31%
CCOC(=O)c1c(NC(=O)CN2C(=O)NC3(CCCCCC3)C2=O)sc(C)c1-c1ccc(C)cc1	inconclusive [inhibitor, single point]	–
OCCSc1ncnc2c1oc1ccccc12	–	inactive: 6.52%
CC(C)(C)c1cc(-c2ccco2)c(C#N)c(SCC#N)n1	inconclusive [inhibitor, partial curve]	–
Cc1ccc(S(=O)(=O)N2CCCCC2)cc1NC(=O)COc1ccccc1F	–	inactive: -27.7%
COc1ccccc1/C=C(\NC(=O)c1ccccc1)C(=O)NCc1ccco1	–	inactive: 6.14%
Cc1ccc(CN2CCN(C(=O)CCc3ccccc3)CC2)cc1	inconclusive [inhibitor, full curve]	–
OCCCNc1ncnc2sc(-c3ccccc3)cc12	–	inactive: 0%
Cc1ccc(NC(=O)COc2cccc3ccccc23)c(O)c1	active: 5.22 µM	–
O=C1/C(=C/c2ccccc2)CCCc2ccccc21	–	inactive: 7.42%
CCC(NC(=S)NCc1ccc(F)cc1)c1ccc(C)cc1 (configuration not stated)	active: 9.28 µM	–
CC(C)C[C@H](NC(=O)N1c2ccccc2NC(=O)[C@@H]1C(C)C)C(=O)N1CCC[C@@H]1C(=O)O	–	inactive: 23.3%
Fc1cccc(NC(=S)N2CCCCC2)c1	–	inactive: 0.288%
COc1ccc(S(=O)(=O)N(C(C)=O)c2ccc3oc(=O)sc3c2)cc1	inconclusive [inhibitor, full curve, poor fit]	–
O=C1/C(=C\c2cc(Cl)c(O)c(Cl)c2)SC(=S)N1Cc1ccccc1	inconclusive [inhibitor, single point]	–
CCN(CC)S(=O)(=O)c1ccc(C(=O)OCCNC(=O)c2cccnc2)cc1	inconclusive [inhibitor, partial curve, poor fit]	–
COc1cc(/C=N/NC(=O)CNc2n[nH]c(=O)[nH]c2=O)ccc1OCc1ccccc1	–	inactive: -5.83%
O=P(Nc1ccccc1)(Oc1ccccc1)Oc1ccccc1	–	inactive: 11.6%
COC(=O)c1ccccc1NC(=O)NCc1ccccc1	inconclusive [inhibitor, single point]	–
Cc1cc2occ(CC(=O)N(CC(C)C)c3c(N)n(Cc4ccccc4)c(=O)[nH]c3=O)c2cc1C	active: 16.5 µM	–
